Reference: patent publication US20220098307A1 (WUHAN YZY BIOPHARMA, published 2022)
Blank lines part the entries; values can stand above or below the binder they belong to.

Experiments:
[1] = target: T1, Human CD3ε (human, UniProt P07766 23-126); test: flow cytometry, human T cells
T1 construct: CD3 on T cells isolated from human whole blood
Excerpt: 1) Cell preparation: T cells isolated from CD3-positive human whole blood were used for a CD3 end affinity detection of multifunctional antibody molecule; positive tumor cells of corresponding antigen were used for detecting affinity of tumor antigen; for example, CD38-positive MM. 1S cells (purchased from the Cell Resource Center of Shanghai Institutes for Biological Sciences, Chinese Academy of Sciences) or RPMI 8226 cells (purchased from the Cell Resource Center of Shanghai Institutes for Biological Sciences, Chinese Academy of Sciences) were used for CD38 antigen detection, and PD-L1 positive H358 cells (purchased from the Cell Resource Center of Shanghai Institutes for Biological Sciences, Chinese Academy of Sciences) were used for PD-L1 antigen detection, and so on. […]
5) Data analysis: the data was analyzed by a flow analysis software FlowJo 7.6 thereby obtaining an average fluorescence intensity of the specific antibody concentration, plotted by a Graphpad Prism 5 with the antibody concentration (nM) as an abscissa and the average fluorescence intensity as an ordinate; the EC50 value was calculated by the method of One site—Specific binding, and the EC50 value indicated the cell affinity of the antibody to the corresponding target antigen.

[2] = target: T2, Monkey CD3 (monkey); test: flow cytometry, monkey T cells
T2 construct: whole, on cells; also called CD3 of monkey CD3 positive T cells

T1 sequence (P07766 23-126): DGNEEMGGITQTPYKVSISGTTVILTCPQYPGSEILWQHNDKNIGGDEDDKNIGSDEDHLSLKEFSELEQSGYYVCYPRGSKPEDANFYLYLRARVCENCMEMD

EC50 [1]: 135 nM | EC50 [2]: 161 nM
B1: PDL1-M1-WT (bispecific antibody)
chain: QVQLVESGGGVVQPGRSLRLSCAASGFTFSTYAMNWVRQAPGKGLEWVARIRSKYNNYATYYADSVKDRFTISRDDSKNTLYLQMNSLRAEDTAVYYCARHGNFGNSYVSWFAYWGQGTLVTVSSGGGGSGGGGSGGGGSQTVVTQEPSLTVSPGGTVTLTCRSSTGAVTTSNYANWVQQKPGQAPRGLIGGTNKRAPGVPARFSGSLLGGKAALTLSGVQPEDEAEYYCALWYSNLWVFGGGTKVEIKRGRGS[sequence of human IgG1 Fc with changes omitted]
heavy: not shown
light: not shown
notes: structure 1; PD-L1 x CD3; CH2 WT

EC50 [1]: 145 nM | EC50 [2]: 168 nM
B2: PDL1-M1-NQ-1 (bispecific antibody)
chain: QVQLVESGGGVVQPGRSLRLSCAASGFTFSTYAMNWVRQAPGKGLEWVARIRSKYNNYATYYADSVKDRFTISRDDSKNTLYLQMNSLRAEDTAVYYCARHGNFGNSYVSWFAYWGQGTLVTVSSGGGGSGGGGSGGGGSQTVVTQEPSLTVSPGGTVTLTCRSSTGAVTTSNYANWVQQKPGQAPRGLIGGTNKRAPGVPARFSGSLLGGKAALTLSGVQPEDEAEYYCALWYSNLWVFGGGTKVEIKRGRGS[sequence of human IgG1 Fc with N297Q Y349C T366S L368A Y407V (EU numbers) omitted]
heavy: not shown
light: not shown
notes: structure 1; PD-L1 x CD3; CH2 N297Q
